Assay results as given in PubChem BioAssay AID1468 (National Center for Advancing Translational Sciences (NCATS), 2008).
In all, about 280,000 compounds went through this assay and about 1,100 (0.39%) were called active. The inconclusive results got no clear call from the source; some entries with a clear call stand among them for comparison. The call rests on the fitted dose curve; in most records, active means well fitted inhibition curve with a large enough effect; inconclusive means small, poorly fitted or top-dose-only effect, or effect the other way; inactive means flat fitted curve, though single readings scatter. Potencies of inconclusive entries are left out as doubtful fits.

These compounds were tested against Microtubule-associated protein tau (Homo sapiens) (UniProt P10636) (assay: qHTS for Inhibitors of Tau Fibril Formation, Fluorescence Polarization). Conditions: K18 P301L tau heparin fibrillization, Alexa594 FP, 6 h; series mostly up to 57.7 µM.
Outline: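 Human tau K18 […] P301L fragment, 15 uM unlabeled plus 0.24 uM Alexa 594-labeled tau (final), with compound and 20 uM heparin in 100 mM sodium acetate pH 7; 6 hr at 37 C, then Alexa 594 FP read.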
Further: nearly all actives have a fitted effect of over 55% in size.
Potency means the concentration at half of the fitted maximal effect; tags describe the fitted curve by direction and shape.

UniProt P10636, sequence (P10636 whole entry, looked up, the tested form may be a part): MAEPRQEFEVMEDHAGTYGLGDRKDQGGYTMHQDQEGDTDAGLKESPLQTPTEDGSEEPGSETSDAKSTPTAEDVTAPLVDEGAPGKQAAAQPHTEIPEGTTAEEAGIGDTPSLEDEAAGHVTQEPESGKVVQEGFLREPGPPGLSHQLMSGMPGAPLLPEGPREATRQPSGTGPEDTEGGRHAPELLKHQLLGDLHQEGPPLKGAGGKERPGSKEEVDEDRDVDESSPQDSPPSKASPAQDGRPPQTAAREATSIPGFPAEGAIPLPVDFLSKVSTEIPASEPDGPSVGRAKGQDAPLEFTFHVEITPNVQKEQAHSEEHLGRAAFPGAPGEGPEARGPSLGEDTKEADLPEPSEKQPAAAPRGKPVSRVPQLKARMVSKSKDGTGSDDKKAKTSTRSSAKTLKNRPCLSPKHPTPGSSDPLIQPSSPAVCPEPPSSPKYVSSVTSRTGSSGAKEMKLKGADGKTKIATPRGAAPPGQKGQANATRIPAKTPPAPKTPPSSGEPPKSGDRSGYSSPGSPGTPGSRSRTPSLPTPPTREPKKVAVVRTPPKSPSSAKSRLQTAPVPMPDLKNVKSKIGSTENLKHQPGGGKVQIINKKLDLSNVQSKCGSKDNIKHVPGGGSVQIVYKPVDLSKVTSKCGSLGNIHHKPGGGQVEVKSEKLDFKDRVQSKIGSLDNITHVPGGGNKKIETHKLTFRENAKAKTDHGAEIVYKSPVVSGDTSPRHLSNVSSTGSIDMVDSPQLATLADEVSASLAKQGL

| Structure (SMILES) | Potency |
| --- | --- |
| c1ccc2c(Cc3c[nH]c4ccccc34)c[nH]c2c1 | inconclusive [activator, single point] |
| COc1ccc(N2CCN(Cc3cc(=O)oc4ccc5ccccc5c34)CC2)cc1 | inconclusive [activator, full curve, poor fit] |
| CC(=O)Nc1ccc(C2Sc3ccccc3NC3=C2C(=O)c2ccccc23)cc1 (stereo unspecified) | inconclusive [inhibitor, partial curve] |
| NC(=O)c1ccc(NC(=O)COC(=O)c2cccc(Oc3ccccc3)c2)cc1 | inconclusive [inhibitor, partial curve, poor fit] |
| CSc1cccc(NC(=O)Cn2c3ncccc3c(=O)n2-c2ccc(C)cc2)c1 | inconclusive [inhibitor, partial curve] |
| O=C(NC(NC(=S)Nc1c(Cl)cccc1Cl)C(Cl)(Cl)Cl)c1cccc([N+](=O)[O-])c1 (stereo unspecified) | inconclusive [activator, partial curve, poor fit] |
| CCc1ccc(NC(=O)CSc2nnc(Cc3cccn3C)n2-c2ccc(OC)cc2)cc1 | inconclusive [inhibitor, single point] |
| CCc1ccc(NS(=O)(=O)c2ccc3[nH]cc(C(=O)NCC4CCCO4)c(=O)c3c2)cc1 (stereo unspecified) | inconclusive [inhibitor, partial curve] |
| COc1ccc(NC(=O)c2oc3ccccc3c2NC(=O)c2cc3ccccc3o2)cc1 | inconclusive [inhibitor, partial curve] |
| N/C(=N\OC(=O)c1cccc(Br)c1)c1ccncc1 | inconclusive [activator, single point] |
| Cc1cccc(N(CC(=O)NC2CCCC2)C(=O)c2cc3cc4cccc(C)c4nc3s2)c1C | inconclusive [inhibitor, single point] |
| O=C(NCCN1C(=O)S/C(=C\c2cccnc2)C1=O)C1=NN(c2ccccc2)C(=O)CC1 | inconclusive [inhibitor, partial curve, poor fit] |
| COc1ccc(OC)c2c(=S)c3ccccc3[nH]c12 | active: 7.94 µM |
| O=C(CC1SC(=O)NC1=O)Oc1ccc(/C=N/NC(=O)c2ccccc2O)cc1 (stereo unspecified) | inactive |
| CCOc1ccc(NC(=O)CSc2nnc3scc(-c4ccc(Cl)cc4)n23)cc1 | inactive |
| Cc1cc(-c2n[nH]c(=S)n2Cc2ccccc2)cs1 | inactive |
| Cc1ccc(CSc2nc(-c3cccs3)ccc2C#N)cc1 | inconclusive [inhibitor, partial curve, poor fit] |
| CCOc1ccc(NC(=O)CSc2nnc(-c3ccccc3Cl)n2Cc2ccco2)cc1 | inactive |
| Cc1nnc(SCC2=C(C(=O)O)N3C(=O)C(NC(=O)C(C)n4nc(C(F)(F)F)cc4C)C3SC2)s1 (stereo unspecified) | inactive |
| COc1cccc(-c2nn(C)c3sc(C(=O)NCCc4ccc(Cl)cc4)cc23)c1 | inconclusive [inhibitor, partial curve] |
| COc1ccc([N+](=O)[O-])cc1CSc1ccccn1 | inactive |
| COC(=O)CN1C(=O)C(O)(CC(=O)c2ccc(C)cc2)c2ccccc21 (stereo unspecified) | inactive |
| Cc1nnc(SCc2ccc(Cl)cc2)c2cc3occc3n12 | inconclusive [inhibitor, single point] |
| O=C1C(Nc2ccc(O)cc2)=C/C(=N/S(=O)(=O)c2cccs2)c2ccccc21 | inconclusive [inhibitor, partial curve] |

| Structure (SMILES) | Potency |
| --- | --- |
| CCCCC(=O)Nc1cc([N+](=O)[O-])ccc1Cl | inactive |
| C/C(=N\NC(=O)c1ccc(CN(C)S(=O)(=O)c2ccc(C)cc2)cc1)c1ccc(OC(F)F)cc1 | inconclusive [inhibitor, single point] |
| COc1cc2[nH]c(=S)nc(NCc3cccs3)c2cc1OC | inactive |
| COC(=O)CNC(c1ccccc1)c1cc(Br)ccc1NC(=O)CNC(=O)OCc1ccccc1 (stereo unspecified) | inactive |
| O=C(O)C1Nc2c(O)cccc2C2C=CCC12 (stereo unspecified) | inconclusive [inhibitor, partial curve, poor fit] |
| Cc1c(N=C2NN=C(c3ccc(Cl)cc3)CS2)c(=O)n(-c2ccccc2)n1C | inactive |
| CCc1ccc2occ(CC(=O)Nc3c(C(=O)Nc4ccc(C)cc4)oc4ccccc34)c2c1 | inconclusive [inhibitor, partial curve] |
| CC(NC(=S)NCc1ccc(F)cc1)C12CC3CC(CC(C3)C1)C2 (stereo unspecified) | inconclusive [inhibitor, single point] |
| O=C(/C=C/Nc1ccc(Nc2ccccc2)cc1)c1cccs1 | inconclusive [inhibitor, single point] |
| COc1ccc(C(=O)NNC(=O)c2ccc(C(C)(C)C)cc2)cc1 | inconclusive [inhibitor, single point] |
| Cc1ccccc1NC1(C#N)C(=O)Nc2ccccc21 (stereo unspecified) | inactive |
| C[C@@](O)(/C=C/[C@H]1CC=CC(=O)O1)[C@@H](C[C@@H](O)\C=C/C=C\C=C\CO)OP(=O)(O)O | inconclusive [inhibitor, partial curve] |
| CCN(c1ccc(NC(=O)CSc2nnc3nc(C)cc(C)n23)cc1)C(C)C | inactive |
| CCOC(=O)C1=C(CS(=O)(=O)c2ccc(C)cc2)NC(=O)NC1c1ccc(C(C)C)cc1 (stereo unspecified) | inactive |
| Cc1ccc(CSCc2ccc(C(=O)NCCc3ccc(Cl)cc3)o2)cc1 | inconclusive [activator, full curve] |
| O=c1c2ccccc2nc2n1C(CSc1ccccc1)CS2 (stereo unspecified) | inconclusive [inhibitor, single point] |
| Cc1ccc(N2C(=O)CC(Sc3ccccc3C(=O)O)C2=O)c([N+](=O)[O-])c1 (stereo unspecified) | inactive |
| Cc1cc(C)cc(OC(=O)CS(=O)c2ccc(C(F)(F)F)cc2[N+](=O)[O-])c1 (stereo unspecified) | inconclusive [inhibitor, partial curve] |
| Cc1[nH]c2ccccc2c1/C=N/NC(=O)c1cccc(S(=O)(=O)Nc2ccccc2Cl)c1 | inconclusive [activator, partial curve, poor fit] |
| CCc1nnc(NCC(=O)N2CCc3ccccc32)s1 | inactive |
| O=C1CSC(=S)N1/N=C/c1ccc(O)c(O)c1O | active: 7.08 µM |
| COc1ccccc1CNC(=O)c1cnc(N(C)C)nc1 | inactive |
| CC1(C)CC(=O)C(C(C2=C(O)CC(C)(C)CC2=O)c2ccc([N+](=O)[O-])cc2)C(=O)C1 (stereo unspecified) | inconclusive [inhibitor, single point] |
| COc1ccc(CCn2c(-c3ccc(Cl)cc3)n[nH]c2=S)cc1OC | inactive |

| Structure (SMILES) | Potency |
| --- | --- |
| Cc1ccc(Nc2nc(CSc3nnc(-c4ccncc4)n3-c3ccccc3C)cs2)cc1 | inconclusive [activator, single point] |
| Cc1cc(N)n2ncc(-c3ccc(Cl)cc3)c2n1 | inconclusive [activator, partial curve] |
| CC(=O)OCC(=O)C1CCC2C3CC=C4CC(O)CC[C@@]4(C)C3CC[C@]12C (stereo partly specified) | inactive |
| CN1C2C=C3C(C#N)=C(N)C(C#N)(C#N)[C@@H](c4cccs4)C3C1CC2 (stereo partly specified) | inconclusive [inhibitor, single point] |
| Cc1cc(=O)n2c(C(=O)Nc3ccc(Br)cc3)c(C(=O)Nc3ccccc3)sc2n1 | inconclusive [inhibitor, partial curve] |
| CCCCC(=O)O[C@H]1CC[C@H]2[C@@H]3CCc4cc(O)ccc4[C@H]3CC[C@]12C | inconclusive [inhibitor, single point] |
| O=c1[nH]c2ccc(S(=O)(=O)N3CCCCC3)cc2[nH]c1=O | inactive |
| CC(C)(O)C#Cc1ccc(C(=O)N2CCN(c3ccc([N+](=O)[O-])cc3)CC2)cc1 | inactive |
| Cc1cc(Nc2cccc(Cl)c2)nc2ccc(NC(=O)Cc3ccc(Cl)cc3)cc12 | inconclusive [inhibitor, single point] |
| CN(C)C(=O)c1cn(-c2ccccc2)nc1-c1cc2ccccc2o1 | inactive |
| Cc1ccc(-c2csc3nnc(SCC(=O)Nc4nsc(-c5ccccc5)n4)n23)cc1 | inactive |
| CC1=CC(=Nc2c(C)n(C)n(-c3ccccc3)c2=O)C=CC1=O | active: 10 µM |
| COc1ccc(/C=N/Nc2nc(-c3cccc(S(=O)(=O)N4CCCC4)c3)cs2)c(OC)c1 | inconclusive [activator, partial curve, poor fit] |
| Cc1ccccc1-n1c(SCC(=O)c2cc(C)n(C)c2C)nnc1-c1cccnc1 | inactive |
| Cn1c(=O)[nH]c(=O)c2c1nc(Sc1nc3ccccc3s1)n2Cc1ccccc1 | inactive |
| C=CCNC(=S)Nc1ccc2cn[nH]c2c1 | inconclusive [inhibitor, partial curve, poor fit] |
| CCn1nc(C)c(CCN(C)C(=O)Nc2ccc(C)c(Cl)c2)c1C | inconclusive [inhibitor, single point] |
| COCCNC(=O)c1ccc(-n2c(-c3ccccc3)cc3c2CCC(C)C3)cc1 (stereo unspecified) | inactive |
| O=S(=O)(Nc1cccc(-c2ccc3nncn3n2)c1)c1ccc(Cl)s1 | inconclusive [inhibitor, single point] |
| Cc1cccc(Nc2nn3c(=O)c4cc5c(cc4nc3s2)OCO5)c1 | inactive |
| CCOc1ccc2c(c1)c(=O)c(C(=O)c1ccc3c(c1)OCO3)cn2Cc1cccc(F)c1 | inactive |
| COc1ccc(-n2ccnc(NCc3cccs3)c2=O)cc1 | inactive |
| O=C(NCCOc1ccccc1Cl)C(=O)c1c[nH]c2ccccc12 | inconclusive [inhibitor, partial curve] |
